In PubChem BioAssay AID624417 (National Center for Advancing Translational Sciences (NCATS), 2012):
Out of some 410,000 compounds screened, about 6,400 (1.6%) were called active. The inconclusive results got no clear call from the source; some entries with a clear call stand among them for comparison. Calls come from the whole dose curve; as a rule, active = well fitted inhibition curve with a large enough effect; inconclusive = small, poorly fitted or top-dose-only effect; inactive = no such curve, though single readings can be large or run the other way. Potencies of inconclusive entries are left out as doubtful fits.

target: Glucagon-like peptide 1 receptor (Homo sapiens) (UniProt P43220); experiment: qHTS of GLP-1 Receptor Inverse Agonists (Inhibition Mode); settings: HEK293 GLP-1R CRE-luciferase, luminescence, 24 h, GLP-1R form is constitutively active; series mostly up to 38.3 µM; note: nearly all actives have a fitted effect of over 55% in size
Method in brief: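 HEK293 cells stably co-expressing a cAMP-responsive luciferase reporter and constitutively active GLP-1R were seeded, incubated 12 h, then exposed to compounds for 24 h at 37 C. Luminescence was read 12 min after detection reagent; inverse agonists lower signal.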
Potency is the fitted concentration of half-maximal effect; tags give direction and shape of the fitted curve.

Sequence of UniProt P43220 (P43220 whole entry, looked up): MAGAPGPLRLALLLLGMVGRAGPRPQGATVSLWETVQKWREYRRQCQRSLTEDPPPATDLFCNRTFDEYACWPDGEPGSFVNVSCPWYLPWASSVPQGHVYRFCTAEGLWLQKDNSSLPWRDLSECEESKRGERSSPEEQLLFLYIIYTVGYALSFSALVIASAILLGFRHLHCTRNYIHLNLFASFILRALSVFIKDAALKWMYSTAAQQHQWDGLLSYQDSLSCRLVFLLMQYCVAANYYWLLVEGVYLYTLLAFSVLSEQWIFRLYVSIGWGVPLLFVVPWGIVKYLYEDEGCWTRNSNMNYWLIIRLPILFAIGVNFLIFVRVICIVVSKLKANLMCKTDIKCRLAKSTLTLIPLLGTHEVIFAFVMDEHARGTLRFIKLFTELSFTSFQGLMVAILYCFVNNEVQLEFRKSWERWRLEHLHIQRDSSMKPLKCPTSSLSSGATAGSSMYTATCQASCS

Compound	Potency
CN(CC1CCN(CCc2cccc(C(F)(F)F)c2)CC1)C(=O)c1ccccc1	inconclusive [inhibitor, partial curve]
CCN(c1ccccc1)S(=O)(=O)c1ccc(Cl)c(NC(=O)COC(=O)c2ccc(Cl)c(N)c2)c1	inconclusive [inhibitor, partial curve, poor fit]
CCOC(=O)C1=C(c2ccccc2)NC(=S)NC1c1ccc(C)c([N+](=O)[O-])c1 (stereo not given)	inconclusive [inhibitor, partial curve, poor fit]
COc1ccc2nc(NC(=O)c3ccccc3F)sc2c1	inconclusive [inhibitor, partial curve]
CCOc1ccc(OCCC(=O)N(CC)CC(=O)Nc2ccccc2OC)cc1	inconclusive [inhibitor, partial curve, poor fit]
CC1(C)CC(=O)C/C(=N/NC(=O)COc2ccc(Cl)cc2Cl)C1	inconclusive [inhibitor, single point]
COc1ccccc1/C=N/NC(=S)Nc1cccnc1	inconclusive [inhibitor, partial curve, poor fit]
CCN1CCN(c2ccc(N3CCN(S(=O)(=O)c4cc([N+](=O)[O-])ccc4C)CC3)nn2)CC1	inconclusive [inhibitor, full curve, poor fit]
O=C(CNc1cccc(S(=O)(=O)N2CCCC2)c1)Nc1cccc(C(F)(F)F)c1	inconclusive [inhibitor, single point]
COc1ccc(-c2nc(SCC(=O)NC3CCCC3)c(-c3ccc(F)cc3)[nH]2)cc1	inconclusive [inhibitor, partial curve, poor fit]
Cc1cc2cc(CN(Cc3cccs3)C(=S)NCc3ccco3)c(=O)[nH]c2cc1C	inconclusive [inhibitor, partial curve, poor fit]
Cn1cc(CN2CCN(CCO)CC2)c(-c2ccc(Oc3ccccc3)cc2)n1	inconclusive [inhibitor, partial curve, poor fit]
Cn1nccc1C(=O)NC1CCCc2c1cnn2-c1ccc(F)cc1F (stereo not given)	inactive
CCOC(=O)C1(Cc2ccccc2)CCN(Cc2nccn2CC)CC1	inconclusive [inhibitor, partial curve, poor fit]
O=C(OCc1ccc(Br)cc1)c1cc([N+](=O)[O-])ccc1N1CCOCC1	inconclusive [inhibitor, partial curve, poor fit]
O=C(/C(=C/c1ccc(Cl)cc1)c1nc2ccccc2[nH]1)c1ccccc1	inconclusive [inhibitor, full curve, poor fit]
OCCNc1nc2ccccc2n1-c1ncnc2sc3c(c12)CCC3	inconclusive [inhibitor, single point]
Cc1ccccc1NC(=O)Cc1nc(COC(=O)C(C)(C)Oc2ccc(Cl)cc2)cs1	inconclusive [inhibitor, single point]
C=CCn1c2c(c3ccccc31)CCC2	inactive
CC(C)NC(=O)N(Cc1ccccc1)Cc1cccs1	inconclusive [inhibitor, single point]

Compound	Potency
CCCCCc1ccc(-c2cn(CCc3c[nH]c4ccccc34)nn2)cc1	inconclusive [inhibitor, partial curve]
Cc1ccc(CN(C)c2ccc(S(=O)(=O)N3CCCC3)cn2)cc1	inconclusive [inhibitor, single point]
CCOc1ccc(CN2CCc3nc(N4CCN(c5ccccc5OC)CC4)ncc3C2)cc1OC	inconclusive [inhibitor, single point]
O=C(C=C=Nc1ccccc1)C(=O)N=C=Cc1ccccc1	inconclusive [inhibitor, single point]
COC(=O)C1(Cc2ccc3c(c2)CCC3)Cc2ccc3c(c2C1=O)CCC3 (stereo not given)	inconclusive [inhibitor, partial curve, poor fit]
CCOC(=O)c1ccc(NC(=O)Cn2cnc3cc(C)c(C)cc32)cc1	inconclusive [inhibitor, partial curve, poor fit]
CCOc1ccc(C(c2nnnn2Cc2ccccc2)N2CCN(C(=O)c3ccco3)CC2)cc1 (stereo not given)	inconclusive [inhibitor, single point]
CCN(c1ccccc1)S(=O)(=O)c1ccc(NC(=O)c2nc(SC)ncc2Cl)cc1	inconclusive [inhibitor, partial curve, poor fit]
O=C(CCC(=O)N1CCN(c2ccc(F)cc2)CC1)c1ccc(F)cc1	inconclusive [inhibitor, partial curve]
CCCOc1ccc(C(O)(CCN2CCCCC2)c2ccccc2OC)cc1 (stereo not given)	inconclusive [inhibitor, single point]
CCN(CC)c1ccc(NC(=O)C2CCN(c3nnc(-n4cccc4)s3)CC2)c(C)c1	inactive
Cc1cc(C(=O)COc2cccnc2[N+](=O)[O-])c(C)n1-c1ccccc1F	inconclusive [inhibitor, full curve, poor fit]
Cc1cccc(-n2c(SCC(=O)Nc3ncc(Cl)cc3Cl)nc3ccccc32)c1	inconclusive [inhibitor, full curve, poor fit]
COc1ccc(C2c3c(-c4ccccc4O)n[nH]c3C(=O)N2CCc2ccc(OC)c(OC)c2)cc1 (stereo not given)	inconclusive [inhibitor, single point]
COC(=O)c1ccc(N2CCCCC2)c(NS(=O)(=O)c2ccc(C)cc2)c1	inconclusive [inhibitor, single point]
O=C(Nc1nnc(C2CC2)o1)c1ccc(S(=O)(=O)N2CCCc3ccccc32)cc1	inconclusive [inhibitor, partial curve, poor fit]
COc1c(C)cc(C(O)c2ncc(-c3ccc(C(F)(F)F)cc3)[nH]2)cc1C (stereo not given)	inconclusive [inhibitor, single point]
COc1cc(C)ccc1OC(C)C(=O)Nc1ccc(N2CCCCC2)cc1 (stereo not given)	inconclusive [inhibitor, single point]
O=S(Cc1ccc(Cl)cc1)CC(O)COc1ccc(Cl)cc1 (stereo not given)	inconclusive [inhibitor, single point]
CCOC(=O)c1cc(-c2ccc(OC)cc2)n(CCC(=O)Nc2ccccc2OC)c1C	inconclusive [inhibitor, single point]

Compound	Potency
Cc1csc(-c2nc3ccccc3n2C(C(=O)Nc2c(C)cccc2C)C2CC2)c1 (stereo not given)	inconclusive [inhibitor, partial curve, poor fit]
Cc1ccc2[nH]c(C(=O)N/N=C/c3ccccc3C(=O)O)c(-c3ccccc3)c2c1	inconclusive [inhibitor, full curve, poor fit]
COc1ccc(NC(=O)CN(C)C(=O)c2sc3ccccc3c2Cl)cc1	inconclusive [inhibitor, single point]
Cn1cc(-c2cc3n(n2)CCC(=O)N3CCCC(=O)NCc2ccc(Cl)cc2)c2ccccc21	inconclusive [inhibitor, single point]
CCC(C(=O)NC1CCCCCC1)c1ccccc1 (stereo not given)	inconclusive [inhibitor, single point]
CC1=C(c2ccc(Cl)cc2)S(=O)(=O)NC1=NCCCN1CCN(c2cc(C)ccc2C)CC1	inconclusive [inhibitor, partial curve]
CCC(CC)C(=O)OCc1cc(=O)n2nc(C3CC3)sc2n1	inactive
O=C(COC(=O)Cn1cc(C(F)(F)F)ccc1=O)Nc1ccccc1	inactive
CCCN(CC(=O)Nc1ccccc1C)C(=O)c1ccc(N2CCCC(C)C2)c([N+](=O)[O-])c1 (stereo not given)	inconclusive [inhibitor, partial curve, poor fit]
Cc1cccc(N/N=C/c2ccc(C)s2)c1	inconclusive [inhibitor, partial curve, poor fit]
COCCCNC(=O)c1cccc2c(-c3ccc(OC)cc3C)coc12	inconclusive [inhibitor, partial curve, poor fit]
O=C(OCc1nnc(-c2ccccc2)o1)c1ccccc1	inactive
CCC1Oc2ccc(C)cc2N(CC(=O)N2CCN(c3ccc(F)cc3)CC2)C1=O (stereo not given)	inconclusive [inhibitor, partial curve, poor fit]
CCN(CC)c1ccc(NS(=O)(=O)c2ccc3c(c2)oc(=O)n3C)c(C)c1	inconclusive [inhibitor, partial curve, poor fit]
CC(C)c1onc(C(=O)Nc2cccc(Cl)c2)c1[N+](=O)[O-]	inconclusive [inhibitor, single point]
COC(=O)c1c(NC(=O)c2ccco2)sc(C)c1C	inactive
O=S(=O)(Nc1ccc2c3c(cccc13)CC2)c1ccc(F)cc1	inconclusive [inhibitor, single point]
CC(C)(C)C1CCC(=O)N(CCSc2ccccc2)CC1 (stereo not given)	inconclusive [inhibitor, single point]
O=C(O)c1ccc2c(=O)n3c(nc2c1)/C(=C/c1cccc(O)c1)CC3	inactive
CC1CC(C)CN(C(=O)c2ccc(C(=O)c3ccccc3)cc2)C1 (stereo not given)	inconclusive [inhibitor, single point]
